# Source: paper PMC4336329 (PLoS ONE, 2015)
# Among all 310,000 compounds or so, about 14,000 (4.5%) showed an effect of 50% or more. Effects have a minus sign here. The list shows a part of the results.
# Target: human ether-à-go-go-related gene (hERG) potassium channel (human, UniProt Q12809)
# Assay: primary screen, population patch clamp on CHO cells stably expressing hERG
# 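Further: peak tail current of the secondary pulse compared with the same well before compound.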
# Chain of human ether-à-go-go-related gene (hERG) potassium channel (Q12809 whole entry, looked up): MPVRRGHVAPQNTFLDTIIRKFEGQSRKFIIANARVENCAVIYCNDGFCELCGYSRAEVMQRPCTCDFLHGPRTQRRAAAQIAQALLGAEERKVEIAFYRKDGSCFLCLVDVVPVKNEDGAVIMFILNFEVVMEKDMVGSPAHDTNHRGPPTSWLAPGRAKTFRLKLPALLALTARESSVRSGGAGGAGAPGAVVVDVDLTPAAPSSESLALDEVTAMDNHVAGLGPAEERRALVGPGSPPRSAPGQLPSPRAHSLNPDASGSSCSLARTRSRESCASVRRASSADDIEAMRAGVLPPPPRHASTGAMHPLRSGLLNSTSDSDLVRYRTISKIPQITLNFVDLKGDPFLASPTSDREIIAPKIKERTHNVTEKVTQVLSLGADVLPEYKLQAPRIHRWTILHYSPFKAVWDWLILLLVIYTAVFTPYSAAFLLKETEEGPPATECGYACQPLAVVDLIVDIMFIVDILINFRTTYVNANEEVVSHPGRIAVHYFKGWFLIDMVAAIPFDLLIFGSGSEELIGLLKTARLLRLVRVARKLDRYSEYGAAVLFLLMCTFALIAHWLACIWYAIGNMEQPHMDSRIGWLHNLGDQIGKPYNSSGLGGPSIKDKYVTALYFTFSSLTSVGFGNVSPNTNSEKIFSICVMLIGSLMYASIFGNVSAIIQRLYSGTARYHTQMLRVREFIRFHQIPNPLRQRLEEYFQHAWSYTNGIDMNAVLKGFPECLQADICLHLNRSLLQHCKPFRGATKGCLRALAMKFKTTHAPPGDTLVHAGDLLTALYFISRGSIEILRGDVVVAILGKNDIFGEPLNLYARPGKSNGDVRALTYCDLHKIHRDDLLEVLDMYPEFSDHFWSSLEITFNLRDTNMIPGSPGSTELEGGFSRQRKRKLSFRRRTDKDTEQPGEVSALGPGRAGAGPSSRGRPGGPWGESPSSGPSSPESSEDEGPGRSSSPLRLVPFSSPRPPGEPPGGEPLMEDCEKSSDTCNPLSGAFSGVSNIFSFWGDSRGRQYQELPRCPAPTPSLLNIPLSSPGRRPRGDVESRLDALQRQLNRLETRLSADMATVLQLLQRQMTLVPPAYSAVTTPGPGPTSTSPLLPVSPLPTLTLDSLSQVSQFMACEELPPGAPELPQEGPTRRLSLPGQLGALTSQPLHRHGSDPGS
row,Structure (SMILES),"hERG current change (%, negative = inhibition) at 10uM [%]"
1,Cc1cccc(OCc2n[nH]c(=S)o2)c1C,6.03
2,CCn1cc(C(=O)NCCCN2CCC(C)CC2)c(=O)c2cc(S(=O)(=O)N(C)C3CCCCC3)ccc21,-80
3,O=C(Nc1cccc(F)c1)N1CCC(c2ccccc2)CC1,-9.33
4,CC1C/C(=N/Nc2ccc([N+](=O)[O-])cc2[N+](=O)[O-])CC(C)(C)C1 (stereo not shown),0.74
5,CCOC(=O)C1=C(C)N=c2s/c(=C\c3ccc(OCC(=O)O)c(OC)c3)c(=O)n2C1c1ccc(OC)cc1 (stereo not shown),13.7
6,O=c1[nH]n2c(-c3ccccc3)nc(O)c2c2ccccc12,-25.2
7,CC1=C(C#N)C(NC(=O)c2ccc(C)cc2)(C(F)(F)F)C(=O)N1 (stereo not shown),22.3
8,CCSc1ccccc1C(=O)NCc1ccc(OC)cc1,2.6
9,CCCCCCNCc1c(F)cccc1Cl,-6.27
10,O=C(O)c1ccc(N/N=C/c2cc3ccccc3nc2Cl)cc1,14.4
11,COc1ccc(C(C(=O)NC2CCCCC2)N(C(=O)c2sc(C)nc2C)c2ccccc2C)cc1 (stereo not shown),-18.1
12,Cc1cccc(C(=O)NNC(=O)CSc2nnc(C3CC3)n2C)c1,20.8
13,O=C(O)CCC(=O)N1CCN(c2ncccn2)CC1,18.4
14,CS(=O)(=O)N(Cc1ccccc1)c1ccc(C(=O)NCc2ccccc2)cc1,21.8
15,COc1ccc(C2=NOC(c3nnc(-c4ccccc4)o3)C2)cc1 (stereo not shown),-0.985
16,Cc1cc(NC(=O)COC(=O)C2CCN(S(=O)(=O)c3ccc(Cl)cc3)CC2)no1,9.58
17,Cc1ccc(S(=O)(=O)c2c(C)cc(C)[nH]c2=O)cc1,20.3
18,COc1ccc(CNC(=O)c2cnc3scc(C)n3c2=O)cc1,-18.3
19,COc1ccccc1NC(=S)N1CC(C)OC(C)C1 (stereo not shown),19.5
20,O=C(CSc1cccc[n+]1[O-])Nc1cc2c(cc1Cl)C(=O)c1ccccc1C2=O,1.62
21,COc1ccc(C2(CNC(C)=O)CCCC2)cc1OC,8.51
22,O=C(Nc1ccc(Cl)c(Cl)c1)Nc1cc(C(=O)NC2CC2)ccc1Cl,5.53

row,Structure (SMILES),"hERG current change (%, negative = inhibition) at 10uM [%]"
1,COc1ccc(N/N=C(/N=Nc2nc(C)cc(=O)[nH]2)c2ccccc2)cc1,-1.23
2,Cc1ccc(C(=O)C[n+]2ccccc2C)cc1[N+](=O)[O-].[Br-],-1.36
3,O=C(CN1CCN(c2ccccc2)CC1)Nc1cccc(C(F)(F)F)c1,2
4,CC(Sc1nc(N)cc(=O)[nH]1)C(=O)NCC(=O)Nc1ccc(F)c(F)c1F (stereo not shown),-8.13
5,O=C(NCN1CCN(CCO)CC1)c1cnccn1,7.29
6,O=C1Nc2ccccc2Nc2ccccc21,14
7,COc1cccc(NC(=O)Cc2csc(NC(=O)Nc3ccccc3OC)n2)c1,18.2
8,CCOC(=O)c1ccc(NC(=S)NC(=O)c2cncc(Br)c2)cc1,21.8
9,Cc1ccc2c(CC(=O)N3CCc4ccccc43)coc2c1,3.29
10,Cc1ccc(C)c(NC(=S)NNC(=O)c2csc(C)c2C)c1,1.72
11,CC(=O)c1ccc(NC(=O)Nc2ncn(Cc3cccc(C)c3)n2)cc1,0.723
12,CC(=O)c1ccc(-c2ccccc2OC(F)(F)F)o1,-10.7
13,CC(=O)Nc1ccc(NC(=O)c2ccc(-n3c(C)ccc3C)cc2)cc1,-20.2
14,CCON1C(=O)CN(C(=O)OC)C1c1ccc(Cl)cc1Cl (stereo not shown),5.34
15,CN(C)c1ccc(/C=N/NC(=O)CNC(=O)c2ccco2)cc1,17.9
16,Br.N=c1n(CCN2CCOCC2)c2ccccc2n1CC(=O)c1ccc(Cl)c(Cl)c1,-73.2
17,Nc1cccc(C(=O)O)c1,13.6
18,CC(=O)Nc1ccc(S(=O)(=O)N[C@@H](C)C(=O)Nc2ccc(N3CCOCC3)cc2)cc1,15.1
19,CC(C)(CO)Nc1nc(N2CCCC2)nc(N2CCCC2)n1,-13.8
20,Cc1ccc(NC(=O)CSc2nnc(-c3cccs3)o2)cc1S(=O)(=O)N1CCCCC1,-19
21,Cc1sc2nc(CN3CCCCC3)nc(Cl)c2c1C,-24.5
22,COc1ccc2c(c1)-c1c(ssc1=S)C(C)(C)N2S(=O)(=O)c1ccc(C)cc1,2.55

row,Structure (SMILES),"hERG current change (%, negative = inhibition) at 10uM [%]"
1,CCN(C(=O)COC(=O)c1ccccc1NCCO)c1cccc2ccccc12,1.48
2,C/C(=N/NC(=O)CSCc1ccc(Cl)cc1)c1cccc(NC(=O)c2ccccc2)c1,4.75
3,Cc1sc(-n2c(C)cc(/C=C3\SC(=S)NC3=O)c2C)c(C#N)c1C,8.41
4,COc1cc(CN(C(=O)c2ccco2)c2ccc(C)cc2)ccc1O,-12.1
5,COc1ccc(-c2[nH]ncc2N=Nc2cc(C)cc(C)c2)cc1,24.5
6,COCCNC(=O)Cn1c(=O)n(Cc2ccc(C(=O)NCCc3ccc(OC)c(OC)c3)cc2)c(=O)c2ccccc21,11.7
7,CC(=O)Nc1nnc(-c2ccc3c(c2)CCCC3)o1,-23.3
8,Cc1cccc(N2CCN(C(=O)C3CCN(S(=O)(=O)c4cnc[nH]4)CC3)CC2)c1C,4.44
9,CC(=Nc1ccccc1)C1=C(O)COC1=O,-3.16
10,COc1ccc(C=O)cc1OC1C=CCCC1 (stereo not shown),11.5
11,Cc1nc(-c2ccccc2)sc1C1(C)CC(c2ccc(OC(F)(F)F)cc2)=NO1 (stereo not shown),4.29
12,O=C(O)CCn1ncc2ccccc2c1=O,-1.22
13,O=C(Nc1cccc(-c2cccc(Cl)c2)c1)C1CCN(C2CCC2)CC1,-73.7
14,CCC(=O)Nc1ccc(Br)cn1,31.9
15,CC1CCN(CC(=O)Nc2ccccc2C(=O)NC2CC2)CC1,-17.4
16,COc1cc(/C=N/NC(=O)c2cc(C)oc2C)cc(OC)c1OC,14.9
17,CCCCCCC(C)n1cc(C(C)=O)c(=O)n(C)c1=O (stereo not shown),-12.1
18,Cc1cccc(N=Nc2c(C)[nH]n(C(N)=S)c2=O)c1C,11.5
19,CCCCc1ccc(NC(=O)N[C@@H](C)C(=O)O)cc1,7.56
20,O=C(CCN1C(=O)/C(=C/c2ccc(F)cc2)SC1=S)Nc1cc([N+](=O)[O-])ccc1O,15
21,C=CCN(CC(=O)NCC1CCCO1)C(=O)CCC(=O)Nc1cc(C)on1 (stereo not shown),11.7
22,C=C(C)C(=O)OCC(O)COc1ccc(C(C)(C)c2ccc(OCC(O)COC(=O)C(=C)C)cc2)cc1 (stereo not shown),9.32

row,Structure (SMILES),"hERG current change (%, negative = inhibition) at 10uM [%]"
1,COc1ccccc1NS(=O)(=O)c1ccc(O)cc1,1.44
2,NS(=O)(=O)c1ccc(CCNC(=O)CSc2nc3ccccc3c3nc(CCN4CCCCC4)nn23)cc1,13.7
3,CCCc1cc(=O)[nH]c(SCC(=O)N2CCC(C)CC2)n1,16.2
4,Cc1ccc(S(=O)(=O)N2CCN(C(=O)COC(=O)CSc3cc(C)ccc3C)CC2)c(C)c1,-6.13
5,Cc1cc(-c2ccc(S(=O)(=O)N(C)c3ccc(C)c(C)c3)s2)on1,18.6
6,O=c1ccc(-c2ccccc2)n[nH]1,17.1
7,CC1CCCN(S(=O)(=O)c2ccc(N(C(=O)c3cnccn3)C(C(=O)NC3CCCCC3)c3cccs3)cc2)C1 (stereo not shown),-22.1
8,COC(=O)C1[C@H]2SC(C)(C)C(C(=O)OC)N2C(=O)N1Cc1nc2ccccc2s1 (stereo partly shown),-24.6
9,COC(=O)Nc1nc(-c2ccc(F)cc2)c(C)s1,14.5
10,Cc1cc(C)c(C(=O)N(C)C2CCCN(Cc3ccccc3F)C2)o1 (stereo not shown),-0.652
11,COCCNc1nc(SC)nc2sc3c(c12)CCN(C)C3,-71.2
12,C=C1CCN(c2ccc(C(=O)NCc3ccc(OC)cc3)cc2[N+](=O)[O-])CC1,-7.55
13,COCCNC(=O)COCc1cc(-c2ccc3c(c2)OCO3)on1,11.6
14,COc1ccc2nc3oc(C(=O)N4CCN(c5ccccc5F)CC4)cc3cc2c1,9.44
15,CCCn1c(SCC(=O)N2c3ccccc3CCc3ccccc32)nc2c1c(=O)n(C)c(=O)n2C,17.5
16,CCN1N=C(C)C=C(c2ccccc2)n2c1nc1ccccc12.Cl,-7.58
17,CC(C)(C)C1=NN(c2ccc([N+](=O)[O-])cc2)C(c2ccccc2)C1 (stereo not shown),16.1
18,CCOC(=O)N1CCN(C(=O)c2ccc(OCC)cc2)CC1,-28.3
19,COc1ccc(N(CC(=O)N/N=C/c2ccc(OC)c(OC)c2)S(=O)(=O)c2ccccc2)cc1,3.61
20,O=C(Cn1cnc([N+](=O)[O-])c1)Nc1cc(Oc2ccc(Cl)cc2Cl)cc([N+](=O)[O-])c1,6.34
21,CC(=O)c1ccc(S(=O)(=O)NCCCC(=O)N(C)Cc2ccc3c(c2)OCO3)cc1,-30.3
22,COCCNC(=S)Nc1ccc2nc(N3CCOCC3)cc(C)c2c1,-0.507
